The source of these data is PubChem BioAssay (NCI).

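96-well plates; 48 h exposure; 5 concentrations. Endpoints by linear interpolation between flanking doses. Not reached: highest tested concentration assigned. GI50 = concentration required for 50% inhibition of growth. TGI: concentration producing complete growth inhibition.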 Where only a bound is given, the exact number is not on record here.

This assay concerns NCI-H322M lung. The assay can be described thus: NCI-60 cell line screen, 48 h.
`O=S(=O)(Nc1cccc2ccccc12)c1ccc(-c2cnc(C3CC3)o2)cc1`: the GI50 was 1.82 µM and the TGI is more than 100 µM.
For `COc1cc(-c2nnc(SCc3ccc(O)c4ncccc34)n2-c2ccccc2)cc(OC)c1OC`, the GI50 was 0.39 µM and the TGI is more than 100 µM.
Take `Nc1nc(-c2cccc([N+](=O)[O-])c2)c(N=Nc2ccccc2[N+](=O)[O-])s1`: the GI50 was 11.1 µM and the TGI was more than 100 µM.
The like results for `Nc1nc(N)c2c(n1)NC(c1ccc(F)cc1)CC(c1ccc(Nc3nc(NCCO)nc(Nc4ccc(Cl)cc4)n3)cc1)=N2` (stereo not given) were, in that order, 2.43 µM and 6.96 µM.
The like results for `c1ccc2c(NCCCn3ccnc3)c3oc4ccccc4c3nc2c1` were, in that order, 1.77 µM and 9.11 µM.
